Variants at the background level are over-represented here.
B1: TPR 5TU (parent)
chain: GGAUCUUCUCGAUCUAACAAAAAAGACAAAUCUGCCACAAAGCUUGAGAGCAUCUUCGGAUGCAGAGGCGGCAGCCUUCGGUGGCGCGAUAGCGCCAACGUUCUCAACUAUGACACGCAAAACGCGUGCUCCGUUGAAUGGAGUUUAUCAUG

Variants of: B1
Experiment: polymerase ribozyme fitness, log enrichment relative to wild type (log ratio); higher = more active; in vitro selection for triplet polymerase activity
Method in brief: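 Input and output libraries were sequenced on Illumina after a single in vitro selection round, run in triplicate on PCR-built, transcribed mutant libraries of each subunit of a heterodimeric triplet polymerase ribozyme. Selection annealed libraries to a biotinylated primer, the partner subunit and triplets, incubated them frozen at −7 °C, then gel-excised extended constructs for streptavidin-bead capture and RT-PCR. Genotypes with ≥10 input reads and ≥1 read per output were kept. Fitness is the logarithm, taken in base 2, of genotype enrichment divided by wild-type enrichment, using inverse-variance-weighted replicate averages.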

Variant	polymerase ribozyme fitness (log ratio)
GGAUCUUCUCGAUCUAACAACAAAGACAAAUCUGCCACAAAGCUUGAGAGCAUCUUCGGAAGCAGAGGCGGCAACCUUCGGCGGCGCGAUGGCGCCAACGUUCUCAACUAUGACACGCAACACGCGUGCUCCGUUAAAUGCAGUUUAUCAUG [A21C U61A G74A U82C A91G A121C G136A G141C]	≤ -4.2
GGAUCUUCUCGAUCUAACAACAAAGACAAAUCUGCCACAAAGCUUGAGAGCAUCUUCGGAUGCAGAGGCGGCAGCCAUCGGUGGCGCGAUAGCGCCAGCGUUCUCAACUAUGACACGCAAAACGCGUGCUCAGUUGAAUGGAUUUUAUCAUG [A21C U77A A98G C132A G143U]	≤ -4.2
GGAUCUUCUCGAUCUAACAAGCUAGACAAAUCUGCCACAAAGCAUGAGAGCAUCUUCGGAUGCAGAGGCGGCAGCCUUCGGUGGCGCGAUAGCGCCAACGUUCUCAACAAUGACACGCAAAACCCUUGCUCCGUUGAAUGGAGUUUAUCAUG [A21G A22C A23U U44A U109A G124C G126U]	≤ -4.2
GGAUCUUCUCGAUCUAACAAGUAAUACAAAUCUGCCACAAAGCUUGAGGGCAUCUUAGGAUGCAGAGGCGGCAGCCUUCGGUCGCGCGAUAGCGCCAACGUUCUCAACUAUGACACGCAAAACGCGUGUUCCGUUGAAUGGAGUUUAUCAUG [A21G A22U G25U A49G C57A G83C C129U]	≤ -4.2
GGAUCUUCUCGAUCUAACAAGACAGACAAAUCUGCCACAAAGCUUGAGAGCAUCUUCGGAUGCAGAGGCGGCAGUCUUCGGUGGCGCGAUAGCACCAACGUUCUCAACUAUGACACGCAAAACGCGUGCUCCGUUGAAUGGAGUUUAUCUUG [A21G A23C C75U G94A A150U]	≤ -4.2
GGAUCUUCUCGAUCUAACAAGAACGACAAAUCUGCCACAAAGCUUGAGAGCAUCUUCGGAUGCAGAGGCGGCAGCCUUCGGUCGCGCGAUAGCGCCAACGUUUUCAACUAUGACACGCAAAACGCGUGCUCCGUUGAAUGGAGUUUAUCAUG [A21G A24C G83C C103U]	≤ -4.2
GGAUCUUCUCGAUCUAACAAGAAAGACCAAUCUGCCACAAAGCUUGAGAGCAUCUUCGGAUGCAGAGGCGGCAGCCUUCGGUGGCGUGAUAGCGCCAACGUUCUCAACUAUGACACGCAAAACGCGUGCUCCGUUCAAUGGAGUUUAUCAUG [A21G A28C C87U G136C]	≤ -4.2
GGAUCUUCUCGAUCUAACAAGAAAGACAAGUCUGCCACAAAGCUUGAGAGCAUCUUCGGAUGCAGAGGCGGCAGCCUUCGGUGGCGCGCUAGCGCCAACGUUCUCAACUAUGACACGCAAAACGCGUGCUCCGUUGAAUGGAGUUUAUCAUG [A21G A30G A89C]	≤ -4.2
GGAUCUUCUCGAUCUAACAAGAAAGACAAUUCUGCCACAAAGCUUGAGAGCAUCUUCGGCUGCAGAGGCGGCAGCCGUCGGUGGAGCGAUAGCUCCAACGUUCUCAACUAUGACACUCAAAACGCGUGCUCCGUUGAAUGGAGUUUAUCGUG [A21G A30U A60C U77G C85A G94U G117U A150G]	≤ -4.2
GGAUCUUCUCGAUCUAACAAGAAAGACAAAUCUGCCUCAAAGCUUGAGAGCAUCUUCGACUGCAGAGGCGGCAGCCUUCGGUGGCGCGAUAGCGCCAACGUUCUCAACUAUGACACGCAAAACGCGUGCUCCGUUGAAUGGAGUUUAUCAUG [A21G A37U G59A A60C]	-3.22
GGAUCUUCUCGAUCUAACAAGAAAGACAAAUCUGCCACCAAGCUUGAGAUCAUCUUCGGAUGCAGAGGCGGCAGCCUUCGGUGGCGCGAUAGAGCCAACGUUCUCAACUAUGACACGCAGAACGCGUGCUCCGUUGAGUGGAAUUUAUCAUG [A21G A39C G50U C93A A120G A138G G143A]	≤ -4.2
GGAUCUUCUCGAUCUAACAAGAAAGACAAAUCUGCCACAUAGCUUGAGAACAUCUUCGGAUGCAGAGGCGGCAGCCUUCGGUGGCGCGAUAGCACCAACGUUCUCAACUAUGACACGCAAAACGCAUGCUCCGUUGAAUGGAGUUUAUCAUG [A21G A40U G50A G94A G126A]	≤ -4.2
GGAUCUUCUCGAUCUAACAAGAAAGACAAAUCUGCCACAAAGCUUGCGAGCAUCUUCGGAUGCAGAGGCGGCAGCCUUCGAUGGCGCAAUAGCGCCAACGUUCUCAACUAUGACACGCAAAACGCGUGCUCCGUUGAAUGGAGUUUAUCAUG [A21G A47C G81A G88A]	≤ -4.2
GGAUCUUCUCGAUCUAACAAGAAAGACAAAUCUGCCACAAAGCUUGGGAGCAUCUUCGGAUGCAGAGGCGGCAGCCUUCGGUGUCGCGAUAGCGCCAACGUUCUCAACUAUGACACGCAAAAAGCGUGCUCCGUUGAAUGGCGUUUAUCAUG [A21G A47G G84U C123A A142C]	≤ -4.2
GGAUCUUCUCGAUCUAACAAGAAAGACAAAUCUGCCACAAAGCUUGAGCGCAUCUUCGGAUGCACAGGCGGCAGCCUAUGGUUGCGCGAUAGCGCCAACGUUCUCAACUAUGACACGCAAAACGCGUGCUCCGUUGAAUGGACUUUAUCAUG [A21G A49C G65C U78A C79U G83U G143C]	≤ -4.2
GGAUCUUCUCGAUCUAACAAGAAAGACAAAUCUGCCACAAAGCUUGAGAGCAUCUUCGGAUGCAGAGGCGGCAGCCUUCGGUGGCGCGAUAGCGCCAUCGUUCUCAACUAUGACACGCAAAACGCGUGAUCCGUUGAAUGGAGAUUAUCAUG [A21G A98U C129A U144A]	-3.61
GGAUCUUCUCGAUCUAACAAGAAAGACAAAUCUGCCACAAAGCUUGAGAGCAUCUUCGGAUGCAGAGGCGGCAGCCUUCGGUGGCGCGAUAGCGCCAACGUUCUCCACUAUGACACGCAAAACGCGUGCUCCGUUGAAUGGAGUUUAUCAUG [A21G A106C]	-0.348
GGAUCUUCUCGAUCUAACAAGAAAGAAAAAUCUGCCACAAAGCUUGAGAGCAUCUUCGGAUGCAGAGGCGGCAGCCUUCGGUGGCGCGAUAGCGCCAACGUUCUCAACUAUGACACGCAAAACGCGUGCUCCGUUGAAUGGAGUUUAUCAUG [A21G C27A]	-3.89
GGAUCUUCUCGAUCUAACAAGAAAGAAAAAUCUGCCACAAAGCUUGAGAGCAUCUUCGGAUGCAGAGGCCGCAGCCUUCGGUGGCGCGAUUGCGCCAACGUUCUCAACUAUGACACGCAAAACGCGUGCUCCGUUGAAUGGAGUUUAUCAUG [A21G C27A G70C A91U]	≤ -4.2

From the RNAGym collection of RNA variant scans (doi:10.1073/pnas.2313332121)
